Variants at the background level are over-represented here.
B1: TPR 5TU (parent)
chain: GGAUCUUCUCGAUCUAACAAAAAAGACAAAUCUGCCACAAAGCUUGAGAGCAUCUUCGGAUGCAGAGGCGGCAGCCUUCGGUGGCGCGAUAGCGCCAACGUUCUCAACUAUGACACGCAAAACGCGUGCUCCGUUGAAUGGAGUUUAUCAUG

Variants of: B1
Assay: polymerase ribozyme fitness, log enrichment relative to wild type (log ratio); higher = more active; in vitro selection for triplet polymerase activity
Outline: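 After PCR construction and transcription, each subunit's mutant library from a heterodimeric triplet polymerase ribozyme was annealed with a biotinylated primer, the partner subunit and triplets. Incubation was frozen, at −7 °C, and extended constructs were gel-excised, bound to streptavidin beads and amplified by RT-PCR, in one selection round done in triplicate. Fitness is the logarithm of a genotype's enrichment divided by that of the wild type, from inverse-variance-weighted replicate averages of Illumina-sequenced inputs and outputs. The base of the logarithm is 2, and genotypes needed ≥10 input reads and ≥1 read per output.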

Variant	polymerase ribozyme fitness (log ratio)
GGAUCUUCUCGAUCUAACAAAAAAGACAAAUCUGCCACAAAGCUUGAGAGCAUCUUCGGAUGCAGAGGCGGCAGCCUUCGGUGACGCGAUAGCGCCAACGUUCUCAACUAUGACACGCAAAACGCGUGCUCCGUUCAACGGAGUUUAUCAUG	≤ -4.2
GGAUCUUCUCGAUCUAACAAAAAAGACAAAUCUGCCACAAAGCUUGAGAGCAUCUUCGGAUGCAGAGGCGGCAGCCUUCGGUGUCGCGAUAGCGCCAACGUUCUCCACUAUGACACGCAAAACGCGUGCUCCGUUGAAUGGAGUUUAUCAUG	-2.1
GGAUCUUCUCGAUCUAACAAAAAAGACAAAUCUGCCACAAAGCUUGAGAGCAUCUUCGGAUGCAGAGGCGGCAGCCUUCGGUGCCGCGAUAGCGCCAACGUUCUCAACUAUGACACGCAAUCCGCGUGCUCCGUUGAAUGGAGUUUAUCAUG	-1.63
GGAUCUUCUCGAUCUAACAAAAAAGACAAAUCUGCCACAAAGCUUGAGAGCAUCUUCGGAUGCAGAGGCGGCAGCCUUCGGUGUCGCGAUAGCGUCAACGUUCUCAACUAUGACACGCAAAACGCGUGCUCCGUUGAAUGGAGUUUAUCAUG	-1.23
GGAUCUUCUCGAUCUAACAAAAAAGACAAAUCUGCCACAAAGCUUGAGAGCAUCUUCGGAUGCAGAGGCGGCAGCCUUCGGUGACGCGAUAGCGCCAACGUUCUCAACUAUGACACGCAAAACGCGUGCUCCGUUGAAUGGAGUUAAUCAUG	-0.719
GGAUCUUCUCGAUCUAACAAAAAAGACAAAUCUGCCACAAAGCUUGAGAGCAUCUUCGGAUGCAGAGGCGGCAGCCUUCGGUGACGCGAUAGGGCCAACGUUGUGAACUAUGACACGCAAAACGCGUGCUCCGUGGAAUGGAGUUUAUGAUG	≤ -4.2
GGAUCUUCUCGAUCUAACAAAAAAGACAAAUCUGCCACAAAGCUUGAGAGCAUCUUCGGAUGCAGAGGCGGCAGCCUUCGGUGACGCGAUAGCGCCAACGUUCUCAACUUUGACACGCAAAACGCGUGCUCCGUUGAAUGGAGUUUAUCAUG	-3.36
GGAUCUUCUCGAUCUAACAAAAAAGACAAAUCUGCCACAAAGCUUGAGAGCAUCUUCGGAUGCAGAGGCGGCAGCCUUCGGUGACGCUAUAGCGCGAACGUUCUCAACUAUGUCACGCAAAACGCGUGCUCCGUUGAAUGGAGGUUAUCAUG	≤ -4.2
GGAUCUUCUCGAUCUAACAAAAAAGACAAAUCUGCCACAAAGCUUGAGAGCAUCUUCGGAUGCAGAGGCGGCAGCCUUCGGUGCCGCGAUAGCGCCAACGUUCUCAACUAGGAGACGCAAAACGCGUGCUCCGUUGAUUGGAGUUUAUCAUG	≤ -4.2
GGAUCUUCUCGAUCUAACAAAAAAGACAAAUCUGCCACAAAGCUUGAGAGCAUCUUCGGAUGCAGAGGCGGCAGCCUUCGGUGUCGCGAUAGCGCGAACGUUCUCAACUAUGACACGCAGAACGCGUGCUCCGUUGAACGGAGUUUAUCAUG	≤ -4.2
GGAUCUUCUCGAUCUAACAAAAAAGACAAAUCUGCCACAAAGCUUGAGAGCAUCUUCGGAUGCAGAGGCGGCAGCCUUCGGUGACGCGAUAGCGCCUACGUUCUCAACUAUGACACGCAAAACGCGUGCUCCGUUGAAUGGAGUUUUUCAUG	0.467
GGAUCUUCUCGAUCUAACAAAAAAGACAAAUCUGCCACAAAGCUUGAGAGCAUCUUCGGAUGCAGAGGCGGCAGCCUUCGGUGACGCGAUAGCGCCAACGUUCUCAACUAUGACACGCAAAACGCGUGCUCCGUUGAAUGGAGUUUGUCAUU	≤ -4.2
GGAUCUUCUCGAUCUAACAAAAAAGACAAAUCUGCCACAAAGCUUGAGAGCAUCUUCGGAUGCAGAGGCGGCAGCCUUCGGUGACGCGAUAGCGCCAACGUUCUCAACUAUGACACGCAAAACGCGUGCUCCGUUGAAUGGGGUUUAUCAUG	-1.82
GGAUCUUCUCGAUCUAACAAAAAAGACAAAUCUGCCACAAAGCUUGAGAGCAUCUUCGGAUGCAGAGGCGGCAGCCUUCGGUUGCGCGAGAGCGCCAACGUUCUCAACUAUGACACGAAAAACGCGUGCUCCGUUGAAUGGAGUUUAUCAUG	≤ -4.2
GGAUCUUCUCGAUCUAACAAAAAAGACAAAUCUGCCACAAAGCUUGAGAGCAUCUUCGGAUGCAGAGGCGGCAGCCUUCGGUGACGCGAUAGCGCCAACGUUCUCAACUAUGACACGUAAAACGCGUGCUCCGUUGAAUGAAGUUUAUCAUG	0.213
GGAUCUUCUCGAUCUAACAAAAAAGACAAAUCUGCCACAAAGCUUGAGAGCAUCUUCGGAUGCAGAGGCGGCAGCCUUCGGUGUCGCGAUAGCGCCAACGUUCUCAACUAUGACUCGCAAAACGCGUGCUCCGUUGAAUGGAGUUUAUCAUG	-3.4
GGAUCUUCUCGAUCUAACAAAAAAGACAAAUCUGCCACAAAGCUUGAGAGCAUCUUCGGAUGCAGAGGCGGCAGCCUUCGGUGCCGCGAUAGCGCCAACGUUCUCAACUAUGACCUGCAAAACGCGUGCUCCGUUGAAUGGAGUUUAUCAUG	-3.98
GGAUCUUCUCGAUCUAACAAAAAAGACAAAUCUGCCACAAAGCUUGAGAGCAUCUUCGGAUGCAGAGGCGGCAGCCUUCGGUGACGCGAUAGCGCCAACGUUCUCAACUAUGACACGAAAAACGCGUGCUCCGUUGAAUGGAGUUUAUCAUG	-1.61
GGAUCUUCUCGAUCUAACAAAAAAGACAAAUCUGCCACAAAGCUUGAGAGCAUCUUCGGAUGCAGAGGCGGCAGCCUUCGGUGUGGCGAUAGCGCCAACGUUCUCAACUAUGACACGCAAAACUCGUGCUCCGUUGAAUGGAGUUUACCAUG	≤ -4.2
